Laboratory results as given in the antibiotic and cytotoxicity screens of Wong et al. (2023).
The other results are listed elsewhere or left out.

System: HepG2
Assay: cytotoxicity call (relative viability < 0.9)
Conditions: 10 µM

| SMILES | cytotoxicity call |
| --- | --- |
| C[C@@H]1CCCCO[C@@H](CN(C)S(C)(=O)=O)[C@@H](C)CN([C@H](C)CO)C(=O)c2cc(NC(=O)CCCN(C)C)ccc2O1 | inactive |
| Cc1cc(C(=O)Nc2cccc3c2O[C@H](CN(C)C(=O)Nc2ccc4c(c2)OCO4)[C@H](C)CN([C@@H](C)CO)C3=O)n(C)n1 | inactive |
| COc1cccc(NC(=O)N(C)C[C@@H]2Oc3ncc(C#Cc4ccncc4)cc3C(=O)N([C@H](C)CO)C[C@@H]2C)c1 | inactive |
| CCCN(C)C[C@@H]1OCCCC[C@@H](C)Oc2ccc(NC(=O)C3CCCCC3)cc2C(=O)N([C@@H](C)CO)C[C@@H]1C | inactive |
| C[C@@H]1CCCCO[C@H](CN(C)C(=O)c2ccccc2)[C@@H](C)CN([C@@H](C)CO)C(=O)c2cc(NC(=O)Cc3ccccc3)ccc2O1 | inactive |
| C[C@@H]1CN([C@@H](C)CO)C(=O)c2cc(NC(=O)Cn3cnnn3)ccc2O[C@H]1CN(C)Cc1ccc(C(F)(F)F)cc1 | inactive |
| CC(=O)O[C@H](C)[C@H]1[C@@](C)(O)CC(=O)[C@]23O[C@]12C(=O)c1ccc(-c2ccc4c(c2O)[C@@H](O)[C@@]25O[C@]2(C4=O)[C@@H]([C@@H](C)OC(C)=O)[C@@](C)(O)CC5=O)c(O)c1[C@H]3O | inactive |
| C[C@@H](O)c1cccc(C(F)(F)F)c1 | inactive |
| O=C(C[C@H]1CC[C@@H]2[C@H](COC[C@@H](O)CN2S(=O)(=O)c2cccc(F)c2)O1)NCCCN1CCOCC1 | inactive |
| CCCNC(=O)C[C@H]1CC[C@H]2[C@@H](COc3ccc(NC(=O)c4ccc5c(c4)OCO5)cc3C(=O)N2C)O1 | inactive |
